Assay results as given in PubChem BioAssay AID488969 (Vanderbilt High Throughput Screening Facility, 2010).
The full ranking holds about 110,000 compounds; the median of “z-score” is about -0.1, and the highest 2% start at about 2. The list shows a part of the results. Calls of active or inactive are those of the source.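 Rule for the calls: active = z-score in the third read window above 3 or below -3; inactive = the rest.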

Molecular target: Metabotropic glutamate receptor 8 (Rattus norvegicus) (UniProt P70579)
Assay: rat mGluR8 modulators via GIRK flux, primary screen, cell-based, thallium flux, HTS (AID 488969)
Details: HEK293 rat mGluR8, GIRK (G protein-gated inwardly rectifying potassium channel) thallium flux, FluoZin2; at 10 µM; stronger effect = higher value; submaximal glutamate (EC20) added with thallium

Sequence of UniProt P70579 (P70579 whole entry, looked up): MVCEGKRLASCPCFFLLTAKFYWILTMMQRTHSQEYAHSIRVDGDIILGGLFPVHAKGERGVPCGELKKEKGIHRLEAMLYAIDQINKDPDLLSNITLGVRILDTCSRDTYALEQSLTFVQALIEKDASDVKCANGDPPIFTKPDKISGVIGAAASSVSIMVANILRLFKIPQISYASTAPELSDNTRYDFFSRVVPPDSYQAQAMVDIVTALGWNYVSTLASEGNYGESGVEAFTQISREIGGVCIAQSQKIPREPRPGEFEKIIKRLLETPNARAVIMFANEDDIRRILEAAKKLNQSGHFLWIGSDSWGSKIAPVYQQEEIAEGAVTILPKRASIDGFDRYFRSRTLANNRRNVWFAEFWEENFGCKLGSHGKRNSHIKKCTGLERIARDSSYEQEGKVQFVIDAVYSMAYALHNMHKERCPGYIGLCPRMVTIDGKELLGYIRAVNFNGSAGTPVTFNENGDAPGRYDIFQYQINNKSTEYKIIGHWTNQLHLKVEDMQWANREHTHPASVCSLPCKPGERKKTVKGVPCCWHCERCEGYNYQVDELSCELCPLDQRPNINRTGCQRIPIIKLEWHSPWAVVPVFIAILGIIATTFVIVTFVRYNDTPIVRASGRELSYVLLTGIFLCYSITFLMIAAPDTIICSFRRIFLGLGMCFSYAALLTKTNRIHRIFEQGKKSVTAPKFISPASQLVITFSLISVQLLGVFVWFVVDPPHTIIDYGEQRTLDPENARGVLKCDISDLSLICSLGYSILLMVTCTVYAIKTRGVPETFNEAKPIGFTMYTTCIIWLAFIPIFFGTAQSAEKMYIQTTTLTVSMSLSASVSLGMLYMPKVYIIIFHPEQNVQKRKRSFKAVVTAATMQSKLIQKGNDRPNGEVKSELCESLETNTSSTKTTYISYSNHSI

In order of falling z-score:
1. O=C(NC1(C(F)(F)F)NC(=O)N(Cc2cccnc2)C1=O)c1ccccc1 (stereo not drawn)  1.13
2. CCn1cc(S(=O)(=O)CC(=O)NC2CCCCC2)c2ccccc21  1.08
3. CC1CC1C(=O)NCCc1ccc(Cl)cc1 (stereo not drawn)  1.05
4. COc1ccc(C(=O)NC(=O)N2CCCCC2)cc1  0.975
5. CNC(=O)CSCc1c(F)cccc1Cl  0.811
6. CCCC(=O)NC(=S)Nc1c(C)cc(Br)cc1C  0.747
7. O=S(=O)(NC1CCCCC1)c1cccc(-c2nnc(-c3ccccc3)o2)c1  0.624
8. Cc1cc(SCC(=O)N2CCC(c3noc4ccc(F)cc34)CC2)nc2ccccc12  0.605
9. CS(=O)(=O)N(CC(=O)O)c1ccc(Oc2ccccc2)cc1  0.56
10. c1ccc(C2CNCc3c2ccc2ccccc32)cc1 (stereo not drawn)  0.462
11. CCOC(=O)Cn1c(=O)oc2cc(S(=O)(=O)N3CCCC(C(=O)OCC)C3)ccc21 (stereo not drawn)  0.444
12. Cc1cc(C(F)F)n2nc(C(=O)Nc3c(F)cc(F)cc3Br)nc2n1  0.439
13. O=S(=O)(c1cccc(-c2csc(-c3cccnc3)n2)c1)N1CCCCC1  0.409
14. CCCCNC(=O)CN1C(=O)NC2(CCCc3ccccc32)C1=O (stereo not drawn)  0.378
15. CC(=O)c1ccc(Nc2nc(=O)c3cccnc3s2)cc1  0.37
16. O=C(N/N=C/c1cccs1)c1cnccn1  0.36
17. COC(=O)C1C2C=CC3(CN(CCc4ccccc4)C(=O)C13)O2 (stereo not drawn)  0.336
18. COCCN(C(=O)CCl)C(C(=O)NC1CCCCC1)c1ccccc1C (stereo not drawn)  0.299
19. CC(=O)C1=NOC(CNC(=O)c2c(-c3ccccc3Cl)noc2C)C1 (stereo not drawn)  0.27
20. Cc1ccc(S(=O)(=O)N2CCOCC2)cc1NC(=O)COC(=O)Cc1ccsc1  0.269
21. CCOc1ncccc1C(=O)NCc1ccc(C)cc1  0.231
22. CSc1ccc(/C=N/NC(=O)CN2CCN(Cc3ccc(C)cc3)CC2)cc1  0.23
23. CCCn1nc(Oc2nc(SC)nc(N(C)C)n2)ccc1=O  0.225
24. O=C(CN(C(=O)CSc1nnc(COc2ccccc2)o1)c1ccc(F)cc1)NC1CCCCC1  0.212
25. C=CCn1c(C)cc(C(=O)CSc2ccc(NC(C)=O)cc2)c1C  0.19
26. CCOC(=O)c1c(C)[nH]c(C)c1C(=O)CSc1nnc(-c2ccc(OC(F)F)cc2)o1  0.176
27. Cc1ccc2[nH]c(CCN(C)C)c(CC#N)c2c1  0.158
28. O=S(=O)(NC1CC1)c1ccc(S(=O)(=O)N2CCCc3ccccc32)cc1  0.155
29. CC(C)CN(CC(C)C)CC(O)COc1ccc([N+](=O)[O-])cc1 (stereo not drawn)  0.154
30. O=C(Nc1nc2ccc(S(=O)(=O)N3CCCC3)cc2s1)C1CCCO1 (stereo not drawn)  0.149
31. S=C(NCCc1ccccn1)Nc1ccc(Cl)cc1  0.143
32. COc1nc(-c2ccccc2)ccc1-c1noc(-c2cccnc2)n1  0.132
33. CC(C)c1ccc(NC(=O)COC(=O)CSc2nnc(N)s2)cc1  0.122
34. COc1ccc(C(C(=O)NC2CCCCC2)N(C(=O)CCCC(=O)Nc2ccccn2)c2ccc3c(c2)OCCO3)cc1 (stereo not drawn)  0.117
35. CCN(CC)c1ccc(CN2CCCCCC2)cc1  0.0952
36. C=Cn1ccnc1P(=S)(c1ccc2c(c1)c1ccccc1n2CC)c1nccn1C=C  0.0668
37. CN(C)/C(CN1CCOCC1)=C1\N=C(c2ccccc2)OC1=O  0.0647
38. Cc1nn(-c2ccccc2)c(NC(=O)c2cccs2)c(-c2ccccc2)c1=O  0.0624
39. CCn1c(SCC(=O)N/N=C/c2ccc(O)c(OC)c2)nc2ccccc21  0.0609
40. O=C(Nc1ccccc1Cl)N1CCN(c2ccc3nncn3n2)CC1  0.0568
41. CN(CCOC(=O)c1cccc(Br)c1)C(C)(C)C  0.0485
42. O=C(CCN1C(=O)c2ccccc2C1=O)Oc1ccc2ccccc2c1  0.0257
43. O=C(COC(=O)c1ccc(NS(=O)(=O)c2ccc3c(c2)OCCO3)cc1)NC1CC1  0.00704
44. COc1cccc(C2C(C#N)=C(N)Oc3cc(C)n(Cc4ccco4)c(=O)c32)c1 (stereo not drawn)  0.0055
45. Cc1cc(C)cc(NC(=S)NCc2cccs2)c1  -0.000167
46. CCn1c(=O)n(CCc2ccccc2)c(=O)c2c3c(sc21)CCCC3  -0.00374
47. CCN(CC)C(=O)C12CC3CC(CC(Cl)(C3)C1)C2  -0.00405
48. CC(C)Sc1cc(N2CCOCC2)nc(-c2ccc(Cl)cc2)n1  -0.00584
49. O=C(c1cccc(Cl)c1)N1CCN(Cc2ccccc2F)CC1  -0.0221
50. CC(C)(C)NC(=O)CN(C(=O)CCN1CCCc2ccccc21)C(C)(C)C  -0.0231
51. Cc1c(C(=O)Nc2ccc(F)cc2)oc2ccc(S(=O)(=O)N3CC(C)CC(C)C3)cc12 (stereo not drawn)  -0.0391
52. CCc1ccc(C2C(C#N)=C(N)C(C#N)(C#N)C3=CCC(C(C)(C)C)CC32)cc1 (stereo not drawn)  -0.0406
53. Cc1ccc(N(C(=O)c2ccccc2Cl)C2=NC(C)CS2)c(C)c1 (stereo not drawn)  -0.0432
54. CCCCc1ccc(NC(=O)N[C@H](C(=O)O)C(C)C)cc1  -0.045
55. Cc1ccc(CNC(=O)c2cn(C)c(=O)c3c2c2ccccc2n3C)o1  -0.046
56. Clc1ccc(OCc2cc(-c3ccccc3)no2)cc1Cl  -0.0469
57. Cc1ccc(C(=O)COC(=O)c2cc(Cl)nc3ccccc23)cc1  -0.0527
58. Cc1ccc(C)c(C(=O)CSc2n[nH]c(C(C)C)n2)c1  -0.054
59. CN(C)S(=O)(=O)c1ccc(N2CCCC2)c(C(=O)NCc2ccccc2)c1  -0.0623
60. COc1cc(/C=C2/OC(=O)c3cc([N+](=O)[O-])ccc32)cc(OC)c1OC  -0.0655
61. Cc1nn(Cc2ccc(Cl)cc2)c(=O)n1N(C)c1ncc(C(F)(F)F)cc1Cl  -0.07
62. N#CC1=C(N)Oc2cc3ccccc3cc2C1c1cccs1 (stereo not drawn)  -0.0711
63. CN(C)C(=O)CNC(=O)C1CCCCC1  -0.0723
64. O=C(NCc1ccco1)NC12CC3CC(CC(C3)C1)C2  -0.073
65. O=C(N/N=C/c1cc(Br)ccc1O)C(c1ccncc1)N1CCOCC1 (stereo not drawn)  -0.0773
66. CCCCCNS(=O)(=O)c1cc(C)ccc1OC  -0.0789
67. N#Cc1nc(-c2cccs2)oc1NCC1CCCO1 (stereo not drawn)  -0.0797
68. Cc1ccccc1NC(=O)OCc1cn(-c2ccc(Cl)cc2)nn1  -0.0933
69. C/C(=C\C(=O)c1ccc(Br)cc1)NCc1ccccc1  -0.0992
70. COC(=O)CSc1nnc(C)n1-c1cccc(OC)c1  -0.108
71. COc1cc(-c2cccs2)cc(=O)c2c(C)oc(C)c12  -0.108
72. COc1ccc2c(c1)nc(SCC(=O)c1ccc(Br)s1)n2C  -0.112
73. Clc1cccc(Cl)c1CSc1nnc(/C=C/c2ccccc2)o1  -0.128
74. CCNC(=O)CSc1nc2ccccc2c(=O)n1-c1cc(OC)ccc1OC  -0.131
75. O=C(COC(=O)/C=C/c1cccs1)Nc1ccc2ccccc2c1  -0.133
76. Cc1cc(NC(=O)COc2cccc(C)c2C)no1  -0.147
77. COCCCn1cnnc1SCC(=O)Nc1ccc(S(=O)(=O)N2CCCC2)cc1  -0.164
78. CCC(=O)NCCc1nc2ccccc2n1Cc1ccc(C)cc1  -0.19
79. COc1ccc(NC(=S)N2CCN(C(=O)c3ccco3)CC2)c(OC)c1  -0.197
80. Cc1cc(NC(=O)COC(=O)[C@H](C)NC(=O)c2ccccc2)no1  -0.202
81. Cc1ccnc(N2CCC(C(=O)NNC(=O)c3ccccc3C)CC2)n1  -0.203
82. O=C(NC1CCCCC1)C12CC3CC(CC(Cl)(C3)C1)C2  -0.21
83. CCCN1C2CCCC1CC(NC(=O)c1ccc(F)cc1)C2 (stereo not drawn)  -0.212
84. Cc1cc(C)nc(NC(=O)/C=C/c2cccs2)c1  -0.267
85. COC(=O)c1ccc(-c2ccco2)n1Cc1cccc(C)c1  -0.285
86. COCCn1nnnc1C(c1ccccc1OC)N1CCc2ccccc2C1 (stereo not drawn)  -0.308
87. CCN1CCN(Cc2nc3c(c(=O)n(C)c(=O)n3C)n2CC(=O)c2ccccc2)CC1  -0.316
88. CC(=O)c1cnc2cc(-c3ccc(Cl)cc3)nn2c1C  -0.316
89. Fc1cccc2sc(N3CCCCC3)nc12  -0.322
90. COc1cccc(C(=O)Nc2ccc(-c3nc4ccccc4o3)c(O)c2)c1  -0.353
91. Cc1ccc(Nc2nc3c(c(=O)[nH]c(=O)n3C)n2Cc2ccc(F)cc2)cc1  -0.354
92. COc1cccc(-c2nc(NC(C)C)c3ccccc3n2)c1O  -0.382
93. COc1ccc(N/N=C(\C=N\O)C(=O)c2ccc(OC)cc2)cc1  -0.414
94. C=C(C)CC1Nc2ccccc2NC1CC(=C)C (stereo not drawn)  -0.434
95. Cc1ccc(N(C)C(=O)C2CCN(S(=O)(=O)c3ccc4c(c3)oc(=O)n4C)CC2)cc1  -0.436
96. O=S(=O)(Cc1ccccc1)N1CCN(c2ccccc2)CC1  -0.475
97. CCCCC(=O)Nc1ccc(C(=O)NCc2ccncc2)cc1  -0.508
98. CCCNC(=O)c1cc(S(=O)(=O)N2CCc3ccccc32)ccc1F  -0.508
99. CC(C)NC(=O)c1cnc(N2CCN(c3ccccn3)CC2)c2ccccc12  -0.555
100. CCN(CC)S(=O)(=O)c1cccc(-c2nnc(SCC(N)=O)n2CCc2ccccc2)c1  -0.616
101. CC(=O)Nc1ccc(NC(=O)C(C)OC(=O)CNC(=O)c2sc3ccccc3c2Cl)cc1 (stereo not drawn)  -0.64
102. COc1cc(-c2nnc(SCC3(c4ccccc4)OCCO3)o2)cc(OC)c1OC  -0.69
103. CCOC(=O)c1sc(/N=C/c2c(O)ccc3ccccc23)cc1C  -0.695
104. CCOC(=O)c1c(NC(=O)CSc2ncccn2)sc2c1CCN(Cc1ccccc1)C2  -0.724
105. COc1ccc(CC(=O)Nc2cc(Cl)ccc2O)cc1  -0.802
106. CCC(C)(C)n1nnnc1C(c1ccccn1)N1CCN(c2cccc(OC)c2)CC1 (stereo not drawn)  -0.987
107. O=C(CCc1ccccc1)Nc1ccc(NC(=O)C2CC2)nc1  -1.03
108. O=C1c2cccnc2C(=O)N1c1ccccc1-c1ccccc1  -1.18
109. CC(/C=N/NC(=O)c1ccc(Br)cc1)=C\c1ccccc1  -1.26
110. CCN(CC)c1ccc2cc(-c3nc(-c4ccc(OC)cc4)cs3)c(=O)oc2c1  -1.4
111. Cc1nc(SCC(=O)CC(=O)OC(C)C)c(C#N)c(C)c1C  -1.82
112. C=CCSc1nc2c(c(=O)[nH]1)C(C(C)C)C(C#N)=C(N)O2 (stereo not drawn)  -2.35

In the case of `CCCCCCCC1CC(CSC(=N)N)OC1=O` (stereo not drawn), the z-score is reported as active: 5.96.
